Assay results taken from paper PMC10236164.
No constants are given. Whether binding was seen depends on the method and setting. In cells and extracts the contact can be indirect. Some results given as binding are weak or reduced against the parent protein; the word gives no strength. Sequences can lack the tags named with a protein.

Amino acid sequences for entries named in this document (tags omitted).
UniProt Q7Z434: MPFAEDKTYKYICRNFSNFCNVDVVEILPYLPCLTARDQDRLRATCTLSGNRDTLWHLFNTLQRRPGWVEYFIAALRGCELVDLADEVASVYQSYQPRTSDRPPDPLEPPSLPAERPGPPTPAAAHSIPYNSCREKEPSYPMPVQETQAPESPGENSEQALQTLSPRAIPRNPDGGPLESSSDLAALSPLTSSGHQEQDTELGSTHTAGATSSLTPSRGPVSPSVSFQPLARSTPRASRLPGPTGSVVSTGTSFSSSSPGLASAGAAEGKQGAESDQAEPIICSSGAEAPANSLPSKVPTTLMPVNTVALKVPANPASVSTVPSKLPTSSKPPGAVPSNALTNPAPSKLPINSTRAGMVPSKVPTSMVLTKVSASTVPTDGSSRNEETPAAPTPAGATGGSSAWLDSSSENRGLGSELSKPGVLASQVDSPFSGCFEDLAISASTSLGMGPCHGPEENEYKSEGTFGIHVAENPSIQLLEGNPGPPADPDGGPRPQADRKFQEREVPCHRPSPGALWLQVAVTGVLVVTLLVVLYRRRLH

Target: DENV2 NS2B-Flag (Dengue virus 2, New Guinea C (NGC) strain) (UniProt P14340)
Test: co-IP; HEK293T cells transiently transfected with NS2B-Flag and HA-tagged components for 24 h; lysates incubated with Flag antibody or control IgG and protein G-Sepharose beads for three hours; blots with antibodies against Flag or HA

## HA-tagged MAVS (from UniProt Q7Z434 1-540)
  binding: binds

B1: HA-tagged TBK1 (enzyme, UniProt Q9UHD2 1-729)
chain: MQSTSNHLWLLSDILGQGATANVFRGRHKKTGDLFAIKVFNNISFLRPVDVQMREFEVLKKLNHKNIVKLFAIEEETTTRHKVLIMEFCPCGSLYTVLEEPSNAYGLPESEFLIVLRDVVGGMNHLRENGIVHRDIKPGNIMRVIGEDGQSVYKLTDFGAARELEDDEQFVSLYGTEEYLHPDMYERAVLRKDHQKKYGATVDLWSIGVTFYHAATGSLPFRPFEGPRRNKEVMYKIITGKPSGAISGVQKAENGPIDWSGDMPVSCSLSRGLQVLLTPVLANILEADQEKCWGFDQFFAETSDILHRMVIHVFSLQQMTAHKIYIHSYNTATIFHELVYKQTKIISSNQELIYEGRRLVLEPGRLAQHFPKTTEENPIFVVSREPLNTIGLIYEKISLPKVHPRYDLDGDASMAKAITGVVCYACRIASTLLLYQELMRKGIRWLIELIKDDYNETVHKKTEVVITLDFCIRNIEKTVKVYEKLMKINLEAAELGEISDIHTKLLRLSSSQGTIETSLQDIDSRLSPGGSLADAWAHQEGTHPKDRNVEKLQVLLNCMTEIYYQFKKDKAERRLAYNEEQIHKFDKQKLYYHATKAMTHFTDECVKKYEAFLNKSEEWIRKMLHLRKQLLSLTNQCFDIEEEVSKYQEYTNELQETLPQKMFTASSGIKHTMTPIYPSSNTLVEMTLGMKKLKEEMEGVVKELAENNHILERFGSLTMDGGLRNVDCL
  binding: no binding

B2: HA-tagged RIG-IN (residues 1 to 284) (domain or fragment, UniProt O95786 1-284)
chain: MTTEQRRSLQAFQDYIRKTLDPTYILSYMAPWFREEEVQYIQAEKNNKGPMEAATLFLKFLLELQEEGWFRGFLDALDHAGYSGLYEAIESWDFKKIEKLEEYRLLLKRLQPEFKTRIIPTDIISDLSECLINQECEEILQICSTKGMMAGAEKLVECLLRSDKENWPKTLKLALEKERNKFSELWIVEKGIKDVETEDLEDKMETSDIQIFYQEDPECQNLSENSCPPSEVSDTNLYSPFKPRNYQLELALPAMKGKNTIICAPTGCGKTFVSLLICEHHLKK
  binding: no binding

B3: HA-tagged IRF3 (protein, UniProt Q14653 1-427)
chain: MGTPKPRILPWLVSQLDLGQLEGVAWVNKSRTRFRIPWKHGLRQDAQQEDFGIFQAWAEATGAYVPGRDKPDLPTWKRNFRSALNRKEGLRLAEDRSKDPHDPHKIYEFVNSGVGDFSQPDTSPDTNGGGSTSDTQEDILDELLGNMVLAPLPDPGPPSLAVAPEPCPQPLRSPSLDNPTPFPNLGPSENPLKRLLVPGEEWEFEVTAFYRGRQVFQQTISCPEGLRLVGSEVGDRTLPGWPVTLPDPGMSLTDRGVMSYVRHVLSCLGGGLALWRAGQWLWAQRLGHCHTYWAVSEELLPNSGHGPDGEVPKDKEGGVFDLGPFIVDLITFTEGSGRSPRYALWFCVGESWPQDQPWTKRLVMVKVVPTCLRALVEMARVGGASSLENTVDLHISNSHPLSLTSDQYKAYLQDLVEGMDFQGPGES
  binding: no binding

B4: IKKε-HA (enzyme, UniProt Q14164 1-716)
chain: MQSTANYLWHTDDLLGQGATASVYKARNKKSGELVAVKVFNTTSYLRPREVQVREFEVLRKLNHQNIVKLFAVEETGGSRQKVLVMEYCSSGSLLSVLESPENAFGLPEDEFLVVLRCVVAGMNHLRENGIVHRDIKPGNIMRLVGEEGQSIYKLTDFGAARELDDDEKFVSVYGTEEYLHPDMYERAVLRKPQQKAFGVTVDLWSIGVTLYHAATGSLPFIPFGGPRRNKEIMYRITTEKPAGAIAGAQRRENGPLEWSYTLPITCQLSLGLQSQLVPILANILEVEQAKCWGFDQFFAETSDILQRVVVHVFSLSQAVLHHIYIHAHNTIAIFQEAVHKQTSVAPRHQEYLFEGHLCVLEPSVSAQHIAHTTASSPLTLFSTAIPKGLAFRDPALDVPKFVPKVDLQADYNTAKGVLGAGYQALRLARALLDGQELMFRGLHWVMEVLQATCRRTLEVARTSLLYLSSSLGTERFSSVAGTPEIQELKAAAELRSRLRTLAEVLSRCSQNITETQESLSSLNRELVKSRDQVHEDRSIQQIQCCLDKMNFIYKQFKKSRMRPGLGYNEEQIHKLDKVNFSHLAKRLLQVFQEECVQKYQASLVTHGKRMRVVHETRNHLRLVGCSVAACNTEAQGVQESLSKLLEELSHQLLQDRAKGAQASPPPIAPYPSPTRKDLLLHMQELCEGMKLLASDLLDNNRIIERLNRVPAPPDV
  binding: binds
